Laboratory results: PubChem BioAssay AID1345083 (National Center for Advancing Translational Sciences (NCATS), 2018)
The whole screen tested about 94,000 compounds, of which about 6,200 (6.6%) were called active. The inconclusive results got no clear call from the source; some entries with a clear call stand among them for comparison. Calls come from the whole dose curve; as a rule, active = well fitted inhibition curve with a large enough effect; inconclusive = small, poorly fitted or top-dose-only effect; inactive = flat fitted curve, though single readings scatter. Where the call is inconclusive, the potency comes from a doubtful curve fit.

Test: Cytotoxic Profiling in HEK 293 Cell Line of Diverse Libraries Using Quantitative High-Throughput Screening; note: nearly all actives have a fitted effect of over 60% in size
Settings: HEK 293 viability, ATP luminescence (CellTiter-Glo), 48-72 h; activity change, negative = cytotoxicity: at 115 µM (top of the series) unless noted; series mostly up to 115 µM
Method in brief: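 HEK 293 seeded at 250 cells/well receive compound via pintool. After 48 or 72 hr at 37 degree Celsius, 5% CO2 and 95% humidity, CellTiter-Glo is dispensed and luminescence read following 10 min at room temperature.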
% is set by controls: 0 for no effect and ±100 for the full control effect; potency is the fitted concentration of half-maximal effect; tags give direction and shape of the fitted curve.

Compound	Potency	activity change, negative = cytotoxicity	outcome
O[C@@H]1CN(Cc2ccc(-n3cccn3)cc2)CC[C@H]1c1ccc(F)cc1	active: 39.8 µM	–	–
N#Cc1ccc(CN2CCC3(COc4ccccc4C(=O)N3)C2)cc1 (stereo not drawn)	active: 63.1 µM	–	–
c1ccc(OCc2noc(CN3CCN(C(c4ccccc4)c4ccccc4)CC3)n2)cc1	inconclusive: 39.8 µM [inhibitor, partial curve]	–	–
Cn1nc(-c2ccncc2)cc1NC(=O)c1ccc(F)cc1	inconclusive: 35.5 µM [inhibitor, partial curve, poor fit]	–	–
O=C(c1ccccc1Cl)N1CCn2c(nn(-c3ccncc3)c2=O)C1	inconclusive: 39.8 µM [inhibitor, partial curve, poor fit]	–	–
NCCC(=O)N1CCCC2(Cc3ccccc3CN2C(=O)c2cccc(Cl)c2)C1 (stereo not drawn)	inconclusive: 56.2 µM [inhibitor, partial curve, poor fit]	–	–
CSc1ccc(-c2cccc(CN3CCC(N[S+](=O)([O-])CCC(F)(F)F)CC3)c2)cc1	–	inactive: -21.6%	–
CC1=C[C@@H](CN2CCC(C(N)=O)CC2)[C@H](C(C)C)C[C@H]1Cc1nnc(C(C)(C)C)o1	inconclusive: 126 µM [inhibitor, single point]	–	–
Cc1noc(-c2ccccc2OC2CCN(C(=O)c3cnccc3C)C2)n1 (stereo not drawn)	–	inactive: -0.104%	–
CCCN(C)c1nccnc1OC1CCN(C(=O)CC)C1 (stereo not drawn)	–	inactive: -5.07%	–
O=C(c1ccc(F)c(Cl)c1)N1CCC2(CC1)N=C(c1ccccc1)NO2	inconclusive: 35.5 µM [inhibitor, partial curve, poor fit]	–	–
CCOC(=O)C1=C(C)N=C2SC=C(CC(=O)NCC3CCCO3)N2C1c1ccc(Cl)cc1 (stereo not drawn)	inconclusive: 89.1 µM [inhibitor, single point]	–	–
CCc1nc2c(c(-c3ccc(Cl)cc3)n1)CN(C(=O)COC)CC2	–	inactive: -17.9%	–
COc1cccc(C(O)CNC(=O)C2CCN(C(=O)C3CCC3)CC2)c1 (stereo not drawn)	–	inactive: -3.23%	–
Cc1cnc(C)n1CCNC(=O)c1ccsc1	–	inactive: -0.0291%	–
Cn1nc(C(=O)N2CCCCCC2c2nnc(-c3ccccc3)o2)c2ccccc21 (stereo not drawn)	inconclusive: 50.1 µM [inhibitor, partial curve, poor fit]	–	–
O=C(Nc1ccc(Cl)cc1)N1CCCC(C(=O)N2CCC(N3CCOC3=O)CC2)C1 (stereo not drawn)	–	inactive: -27.2%	–
COc1cccc(CCC(=O)N2CCN(C(=O)c3nnn4c3COC(c3ccc(C)cc3)C4)CC2)c1 (stereo not drawn)	inconclusive: 25.1 µM [inhibitor, full curve]	–	–
COc1ccc(C2Cn3cnc(-c4nc(-c5ccsc5)no4)c3CO2)cc1 (stereo not drawn)	inconclusive: 89.1 µM [inhibitor, single point]	–	–
Cc1ccc(NC(=O)c2cc3c(N4CCSCC4)nc(C)cn3n2)cc1	inconclusive: 44.7 µM [inhibitor, partial curve, poor fit]	–	–
COc1cc(SC)ccc1C(=O)N[C@H]1CCN2C(=O)[C@@H](CC(C)C)NC(=O)[C@@H]2C1	–	–	inactive [at 172 µM]

Compound	Potency	activity change, negative = cytotoxicity	outcome
CCCNC(=O)CCC1CCN(S(=O)(=O)c2ccccc2)CC1	–	inactive: 1.39%	–
CCCOc1cccc(-c2cc3c(cc2OC)C(CO)CC(C)(C)CO3)c1 (stereo not drawn)	active: 35.5 µM	–	–
N#Cc1ccc(CN2CCC3(COC(=O)N3Cc3ccccc3)C2)cc1 (stereo not drawn)	inconclusive: 79.4 µM [inhibitor, partial curve, poor fit]	–	–
COc1cccc(-c2noc(CC3CCN(C(=O)c4ccc(OC)c(OC)c4)CC3)n2)c1	inconclusive: 17.8 µM [inhibitor, partial curve, poor fit]	–	–
O=C(Cc1cccs1)N1CCC2(CC1)CC(N(Cc1ccc(F)cc1)C1CC1)CCO2 (stereo not drawn)	inconclusive: 50.1 µM [inhibitor, partial curve, poor fit]	–	–
CNC(=O)[C@@H](C1CC1)N1CCC[C@H]1C(=O)NCc1ccccn1	–	–	inactive [at 172 µM]
O=C(c1cc2c(s1)CN(C1CCCC1)C2)N1CCCN(c2ncccn2)CC1	inconclusive: 79.4 µM [inhibitor, partial curve, poor fit]	–	–
O[C@@H]1C[C@@H](c2nc(-c3ccc(F)cc3)no2)N(Cc2ccncc2)C1	active: 70.8 µM	–	–
O=C(C1CCCC1)N1CC[C@](O)(c2ccccc2)[C@H](N2CCCC2)C1	inconclusive: 50.1 µM [inhibitor, partial curve, poor fit]	–	–
COc1ccc(-c2cc(-c3cccnc3)c3cncn3c2)cn1	inconclusive: 39.8 µM [inhibitor, full curve]	–	–
CCc1cccc(OCC(=O)c2ccc3c(c2)N(CC(=O)NCCCOC)C(=O)CO3)c1	inconclusive: 89.1 µM [inhibitor, single point]	–	–
CC(C)C[C@@H](CO)n1cc(-c2cncnc2)nn1	–	–	inactive
COc1cccc(-c2cccc(C(=O)N3CCN(C(=O)Cc4cccc(Cl)c4)CC3)c2)c1	inconclusive: 50.1 µM [inhibitor, partial curve, poor fit]	–	–
CCn1cc(-c2ccc(C)cc2)cc1C(=O)NCC1CCCO1 (stereo not drawn)	inconclusive: 44.7 µM [inhibitor, partial curve, poor fit]	–	–
O=C(c1ccc(Cl)cc1)N1CCN(c2ccc3nnc(C4CC4)n3n2)CC1	inconclusive: 89.1 µM [inhibitor, single point]	–	–
Cc1ccccc1C(=O)N1CCC(C(=O)N2CCC(c3ccccc3)CC2)CC1	inconclusive: 50.1 µM [inhibitor, partial curve, poor fit]	–	–
Cc1cn2nc(C(=O)NCc3cccc(C(F)(F)F)c3)cc2c(N2CCSCC2)n1	inconclusive: 50.1 µM [inhibitor, partial curve, poor fit]	–	–
Cc1ccsc1-c1[nH]nc2ncc(-c3cn[nH]c3)nc12	inconclusive: 100 µM [inhibitor, partial curve, poor fit]	–	–
COc1ccc(NC(=O)c2nc3sccn3c2-c2ccccc2)cc1	inconclusive: 100 µM [inhibitor, partial curve]	–	–
COc1ccc(NC(=O)CC2=C3CCCCC3N(Cc3ccccc3)C2=O)cc1F (stereo not drawn)	inconclusive: 35.5 µM [inhibitor, partial curve, poor fit]	–	–
CCNC(=O)N[C@H]1C[C@@H](Cc2cc(C(C)(C)C)on2)C1(C)C	inconclusive: 70.8 µM [inhibitor, partial curve, poor fit]	–	–

Compound	Potency	activity change, negative = cytotoxicity	outcome
CCOC(=O)C1CCCN(C(=O)C2CC(c3ccc(F)c(C)c3)CN(C(=O)NC(C)C)C2)C1 (stereo not drawn)	inconclusive: 89.1 µM [inhibitor, single point]	–	–
Cc1nc(N2CCC(NC(=O)c3nccc4ccccc34)CC2)cc(C(F)(F)F)n1	inconclusive: 25.1 µM [inhibitor, full curve]	–	–
O=C(Cn1c(=O)oc2cc(Cl)ccc21)N1CCc2n[nH]c(=O)n2CC1	–	–	inactive
C=CCNC(=O)CCc1c(CC)nn(-c2ccccc2)c1Oc1ccccc1OC	inconclusive: 44.7 µM [inhibitor, partial curve]	–	–
COc1ccc(-c2nc(C3CC3)nc3c2CCN(Cc2ccc(NC(C)=O)cc2)CC3)cc1	inconclusive: 89.1 µM [inhibitor, single point]	–	–
COCC(=O)N1CCCN(c2ccc3nnc(-c4ccccc4)n3n2)CC1	inconclusive: 89.1 µM [inhibitor, single point]	–	–
CN1CC(=O)N(C2CCCC2)Cc2c(NCc3cccc(F)c3)ncnc21	inconclusive: 56.2 µM [inhibitor, partial curve, poor fit]	–	–
COc1cccc(C(=O)N2CC(N3C(=O)c4c(c(C)nn4-c4ccccc4)C3C)C2)c1 (stereo not drawn)	inconclusive: 44.7 µM [inhibitor, partial curve, poor fit]	–	–
O=C(NCc1ccncc1)C1c2ccccc2C(=O)N(Cc2ccccc2)C12CCCC2 (stereo not drawn)	inconclusive: 79.4 µM [inhibitor, partial curve, poor fit]	–	–
COc1ccc(-c2cccc(C(=O)N3CCC(NC(=O)c4ccccc4C)CC3)c2)nn1	inconclusive: 31.6 µM [inhibitor, full curve]	–	–
O=C(CC1CCCC1)N1CCC(c2noc(-c3ccncc3)n2)C1 (stereo not drawn)	inconclusive: 14.1 µM [inhibitor, full curve]	–	–
CCCc1ccc(CN2CC[C@@H]3[C@@H](CCC(=O)N3CCc3cnc[nH]3)C2)o1	inconclusive: 31.6 µM [inhibitor, partial curve]	–	–
COCC(=O)NC1CCC12CCN(S(=O)(=O)c1ccc3c(c1)CCC3)CC2 (stereo not drawn)	–	–	inactive
COc1cccc(-c2cc3c(ccn3CC3CCN(C)CC3)c(N3CCOCC3)n2)c1	active: 63.1 µM	–	–
OCCCn1cnc(-c2ccccc2)c1COCc1ccccc1	inconclusive: 79.4 µM [inhibitor, partial curve, poor fit]	–	–
Cc1ccc(CN2CCc3nc(C(=O)Nc4nc(C)cs4)oc3CC2)cc1	active: 70.8 µM	–	–
COC(=O)c1cccc(NC(=S)N[C@H]2CO[C@H]3[C@@H]2OC[C@H]3OC(=O)Nc2ccc(Oc3ccccc3)cc2)c1	inconclusive: 44.7 µM [inhibitor, partial curve, poor fit]	–	–
Cc1ccc(C2c3cc(OCc4nc(C(=O)N5CCCC5)co4)ccc3CCN2C(=O)C2CC2)cc1 (stereo not drawn)	active: 39.8 µM	–	–
CC(C)c1ccc(CNC(=O)CCn2ccn3nc4c(c3c2=O)CCCC4)cc1	inconclusive: 50.1 µM [inhibitor, partial curve, poor fit]	–	–
O=C(NCC1CCCO1)c1ccc(Cn2ccn3nc4c(c3c2=O)CCCC4)cc1 (stereo not drawn)	inconclusive: 56.2 µM [inhibitor, partial curve, poor fit]	–	–
COc1ccc(-c2ccc(C(=O)N3CCN(C(=O)c4ccccc4Cl)CC3)cc2)nn1	inconclusive: 70.8 µM [inhibitor, partial curve, poor fit]	–	–
